Assay results: PubChem BioAssay AID485364 (National Center for Advancing Translational Sciences (NCATS), 2010)
Several values for one entry are separate records, joined by “and”; a condition that tells them apart may be missing. Identical values can stand only once. In all, about 360,000 compounds went through this assay and about 11,000 (3.1%) were called active. Inconclusive means that the source gave no clear call. Such entries were picked first, then a sample of the others. The call rests on the fitted dose curve; in most records, active means well fitted inhibition curve with a large enough effect; inconclusive means small, poorly fitted or top-dose-only effect; inactive means no such curve, though single readings can be large or run the other way. Potencies beside an inconclusive call are fits to weak or partial responses and may not hold up.

Target: Schistosoma mansoni thioredoxin glutathione reductase (TGR) (UniProt Q962Y6)
Experiment: qHTS Assay for the Inhibitors of Schistosoma Mansoni Peroxiredoxins; further: nearly all actives have a fitted effect of over 60% in size
Details: purified TGR, DTNB reduction, TNB absorbance 405 nm; series mostly up to 114 µM
Summary of the method: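 TGR 20 nM + NADPH 100 uM (dispensed conc.), cpd preinc 15 min RT; start with NADPH (500 uM addition) then DTNB (15 mM addition). Kinetic TNB absorbance, 405 nm filter. Four-parameter Hill fit across titration.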
Potency means the concentration at half of the fitted maximal effect; tags describe the fitted curve by direction and shape.

SMILES	Potency
CCn1cc(Br)c(C(=O)Nc2ccccc2C(=O)OC)n1	inactive
CCOC(=O)c1oc2ccccc2c1NC(=O)CCl	active: 5.62 µM
CCN1CCN(CC(=O)Nc2ccc(C(C)=O)cc2)CC1	inconclusive: 50.1 µM [inhibitor, partial curve]
CC(=O)N1CCN(C(=O)c2ccc(OC3CCN(Cc4ccccn4)CC3)cc2)CC1	inconclusive: 44.7 µM [inhibitor, partial curve]
COc1ccc([C@H]2Cc3cccc(O)c3C(=O)O2)cc1O	inactive
COc1cc(C2NC(=O)N(C)C3=C2C(=O)N(c2ccccc2)C3)ccc1O (stereo unspecified)	inconclusive: 39.8 µM [inhibitor, single point]
CSc1ccc(Cl)c(C(=O)OCC(=O)N2CCN(C(=O)c3ccco3)CC2)c1	inconclusive: 89.1 µM [inhibitor, single point]
COC(=O)/C=C1/N/C(=N\c2nc(C)cc(C)n2)N(c2ccc(Cl)cc2)C1=O	inconclusive: 28.2 µM [inhibitor, full curve, poor fit]
C=CCNC(=S)N/N=C(\C)c1cccnc1	inconclusive: 50.1 µM [inhibitor, partial curve]
COc1ccc(Nc2nc(Cl)nc(Nc3ccc(OC)cc3)n2)cc1	inactive
CCc1cccc(CC)c1NC(=O)Cc1csc(C)n1	inconclusive: 89.1 µM [inhibitor, single point]
CC(C)N(Cc1ccccc1)C(=O)COC(=O)C1CCN(c2ccc(C(F)(F)F)cn2)CC1	inconclusive: 50.1 µM [inhibitor, partial curve]
O=C(CNC(=O)c1ccc(Cl)cc1Cl)OCn1nnc2ccccc2c1=O	inconclusive: 25.1 µM [inhibitor, full curve]
COc1cccc(C(CC(=O)NCc2ccco2)NS(=O)(=O)c2ccc(C)cc2)c1OC (stereo unspecified)	inconclusive: 50.1 µM [inhibitor, partial curve]
OCc1c[nH]c(=S)n1CCOc1cccc(C(F)(F)F)c1	inactive
CSCCC1NC2(C(=O)Nc3ccc(Cl)cc32)[C@@H]2C(=O)N(C3CCCC3)C(=O)[C@H]12 (stereo partly specified)	active: 31.6 µM
COc1ccc(NC(=O)CSc2nc(C)cs2)c(OC)c1	inactive
COC(=O)c1nc(N)sc1-c1ccc(Cl)cc1	inactive
COC(=O)c1ccc(NC(=O)CCc2nnc3ccc(N4CCC5(CC4)OCCO5)nn23)cc1	inactive
CCOc1cc(C2CC(=O)N3CN(C4CCCCC4)CSC3=C2C#N)ccc1O (stereo unspecified)	active: 10 µM
COC(=O)c1ccc2c(=O)n(CCN3CCOCC3)c(=S)[nH]c2c1	inconclusive: 31.6 µM [inhibitor, full curve]
O=c1/c(=C/c2ccco2)sc2n1CN(c1cccc(Br)c1)CN=2	active: 25.1 µM
CCOC(=O)C(NC(=O)c1ccccc1Cl)(Nc1sc2c(c1C(N)=O)CCC2)C(F)(F)F (stereo unspecified)	active: 39.8 µM
O=C1CC(N2CCOCC2)C(=O)N1c1ccccc1Cl (stereo unspecified)	active: 50.1 µM

SMILES	Potency
Cc1cccc(NC(=O)Cn2c(=O)n(CCc3c[nH]c4ccccc34)c(=O)c3cccnc32)c1	inactive
CC1(C)CC(=O)C(C=NCCN2CCN(C(=O)C34CC5CC(CC(C5)C3)C4)CC2)=C(O)C1	active: 25.1 µM
Cc1sc2ncn(-n3c(C)ccc3C)c(=O)c2c1C	inconclusive: 1.41 µM [inhibitor, full curve]
O=C(O)c1cccc(-n2cccc2/C=C/[N+](=O)[O-])c1	active: 4.47 µM
COc1ccccc1/C=C/C(=O)NC(=S)NC(C)C	inconclusive: 50.1 µM [inhibitor, partial curve]
Cc1ccc(CN=C2NC(=O)C(CC(=O)NCCc3ccccc3)S2)cc1 (stereo unspecified)	inconclusive: 100 µM [inhibitor, single point]
COc1cccc(CCNCc2c(F)cccc2F)c1	inconclusive: 56.2 µM [inhibitor, partial curve]
Nc1cc(Cl)ccc1N1CCCC1	inconclusive: 0.891 µM [inhibitor, full curve, poor fit]
O=C(O)c1cc(N/N=C/c2ccc(N3CCOCC3)s2)ccc1Cl	inconclusive: 56.2 µM [inhibitor, partial curve, poor fit]
O=C(O)c1cccc(-c2noc(-c3cccc(Cl)c3)n2)c1	inconclusive: 31.6 µM [inhibitor, single point]
CCOC(=O)N1CCN(C2CC(=O)N(c3ccc(C)cc3)C2=O)CC1 (stereo unspecified)	inconclusive: 56.2 µM [inhibitor, partial curve]
CCN(CC)Cc1c[nH]c2ccccc12	inconclusive: 35.5 µM [inhibitor, partial curve]
CCCCC(=O)NC(=S)Nc1cccc(NC(=O)c2ccccc2)c1	inconclusive: 10 µM [inhibitor, full curve]
CCOC(=O)CSc1[nH]c2cc(OC)ccc2c1[N+](=O)[O-]	inconclusive: 50.1 µM [inhibitor, partial curve, poor fit]
O=S(=O)(/N=C(\Sc1ccc(Cl)cc1)c1ccccc1)c1ccccc1	active: 25.1 µM
COc1ccc(-c2[nH]c(-c3cccc(OC)c3)nc2SCC(=O)NCc2ccco2)cc1	inactive
COc1ccc(CN2CCNC(=O)C2CC(=O)NC2CCCCCC2)c(F)c1 (stereo unspecified)	inconclusive: 35.5 µM [inhibitor, partial curve]
c1ccc(Nc2c(-c3ccco3)nc3ccccn23)cc1	inactive
CCN(c1cc(C)cc(C)c1)S(=O)(=O)c1nnc(NC(=O)c2ccco2)s1	inactive and inconclusive: 39.8 µM [inhibitor, partial curve]
Cc1cc(OCC(=O)N2CCCC2)ccc1Cl	inconclusive: 89.1 µM [inhibitor, single point]
O=C(C1CCC(CNc2nc(=S)[nH]c3ccccc23)CC1)N1CCN(c2ccc(F)cc2)CC1 (stereo unspecified)	inactive
CCOC(=O)c1c(-c2ccccc2Cl)csc1NC(=O)c1cc(S(=O)(=O)N2CCOCC2)ccc1C	inactive
O=C(O)c1cc(-c2ccco2)nc2ccccc12	inconclusive: 3.55 µM [inhibitor, full curve]
CCOc1cc(C(=O)NC(=S)Nc2cccnc2)cc(OCC)c1OCC	active: 50.1 µM

SMILES	Potency
CN(CC(=O)Nc1ccccc1Cl)C(=O)COC(=O)c1nc(Cl)c(Cl)c(Cl)c1Cl	active: 17.8 µM
COc1ccc(C(c2c(O)nc(SC)n(C)c2=O)c2c(O)nc(SC)n(C)c2=O)cc1O	active: 12.6 µM
CCCCNCc1cc(Br)c(OCC(=O)N2CCOCC2)c(OC)c1	inconclusive: 0.1 µM [inhibitor, full curve, poor fit]
Cc1ccc(C(=O)N2NC(c3ccc(F)cc3)C3C(=O)N(c4ccc(C)c(C)c4)C(=O)C32)cc1 (stereo unspecified)	inconclusive: 50.1 µM [inhibitor, partial curve]
Cc1ccc(Nc2sc(C(=O)c3ccccc3)c(N)c2S(=O)(=O)c2ccccc2)c(C)c1	inconclusive: 89.1 µM [inhibitor, single point]
CSc1cccc(CNC(=O)CC2C(=O)NCCN2CC(C)(C)C)c1 (stereo unspecified)	active: 39.8 µM
O=c1[nH]c(=O)n(Cc2ccccc2)c(O)c1C=NCCCO	inconclusive: 39.8 µM [inhibitor, partial curve]
NC(=O)C1CCN(C(=O)c2ccc(CS(=O)(=O)c3c(Cl)cccc3Cl)o2)CC1	inconclusive: 50.1 µM [inhibitor, partial curve]
O=c1cc2oc3cc(O)c(O)cc3c(-c3ccccc3O)c-2cc1O	active: 8.91 µM
O=c1[nH]c(CS(=O)(=O)c2ccccc2)nc2ccccc12	inconclusive: 39.8 µM [inhibitor, full curve]
O=C(NCc1ccco1)/C(=C\C=C\c1ccccc1)NC(=O)c1ccccc1Br	inconclusive: 44.7 µM [inhibitor, partial curve]
COC(=O)c1cc(S(=O)(=O)NCCc2cccc(C)c2)cn1C	inactive
O=C(CC1C(=O)NCCN1CCCc1ccccc1)NCCc1ccccc1Cl (stereo unspecified)	inconclusive: 8.91 µM [inhibitor, full curve, poor fit]
O=C(CC1SC(=O)N(c2ccccc2)C1=O)Nc1ccccc1 (stereo unspecified)	inconclusive: 3.55 µM [inhibitor, full curve, poor fit]
COc1ccc(-n2c(=O)c3sc4ccccc4c3n(CC(=O)NCc3ccccc3)c2=O)cc1	inconclusive: 89.1 µM [inhibitor, single point]
Cc1nn(CC(=O)OC(C)C(=O)Nc2ccccc2[N+](=O)[O-])c(C)c1[N+](=O)[O-] (stereo unspecified)	inactive
Cc1ccc(CNC(=O)c2nc(S(=O)(=O)Cc3ccc(C)cc3)ncc2Cl)cc1	inconclusive: 1.12 µM [inhibitor, full curve]
Cc1cc(C)cc(NC(=O)CCCn2nc(C)c3c(C)n(-c4ccccc4)nc3c2=O)c1	inactive
COc1cccc(NC(=O)NC2CCN(Cc3nnnn3Cc3ccc(F)cc3)CC2)c1	inconclusive: 89.1 µM [inhibitor, single point]
Cc1cc(NC(=O)c2ccco2)ccc1NC(=O)Cc1cccs1	inactive
Cc1ccc(C(=O)Nc2ncc3c(n2)CC(c2ccco2)CC3=O)cc1 (stereo unspecified)	inconclusive: 50.1 µM [inhibitor, partial curve]
CC(C)c1ccc(/C=C(\C#N)c2nc(-c3cc4ccccc4oc3=O)cs2)cc1	inconclusive: 89.1 µM [inhibitor, single point]
CC(=O)C(Sc1nc(NC(C)(C)C)nc(N(C)C)n1)C(C)=O	inconclusive: 20 µM [inhibitor, full curve]
